Measurements as given in PubChem BioAssay AID485281 (National Center for Advancing Translational Sciences (NCATS), 2010).
Screen size: about 350,000 compounds; about 260 (0.074%) were called active. The shares of active, inactive and inconclusive entries below differ from those in the screen. Calls come from the whole dose curve; as a rule, active = well fitted inhibition curve with a large enough effect; inconclusive = small, poorly fitted or top-dose-only effect; inactive = no such curve, though single readings can be large or run the other way. Potencies beside an inconclusive call are fits to weak or partial responses and may not hold up.

molecular target: Ferritin light chain (Equus caballus) (UniProt P02791); experiment: qHTS Assay for Identification of Novel General Anesthetics; details: apoferritin/1-aminoanthracene competitive binding, fluorescence; activity change, negative = displacement: at 77.5 µM (top of the series); note: nearly all actives have a fitted effect of over 20% in size
How it was run: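 Horse-spleen apoferritin (10 uM) was mixed with 50% saturated 1-aminoanthracene in PBS, exposed to compounds for 10 min at room temperature, and read for fluorescence (ex 380 nm, em 535 nm). Competitive displacement was fitted with a four-parameter Hill equation.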
% is set by controls: 0 for no effect and ±100 for the full control effect; potency is the fitted concentration of half-maximal effect; tags give direction and shape of the fitted curve.

UniProt P02791, sequence (P02791 whole entry, looked up): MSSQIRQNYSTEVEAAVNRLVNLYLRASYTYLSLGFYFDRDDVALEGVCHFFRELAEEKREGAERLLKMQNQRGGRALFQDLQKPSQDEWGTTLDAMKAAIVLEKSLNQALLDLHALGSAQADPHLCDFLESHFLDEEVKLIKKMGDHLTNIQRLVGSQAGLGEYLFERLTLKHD

Potency, inconclusive:
CC(=O)O[C@@H]1[C@H](OC(=O)CC(C)C)c2c(ccc3ccc(=O)oc23)OC1(C)C 35.5 µM [inhibitor, partial curve]
C=CCn1c(SCc2c(C(=O)OC)sc(N)c2C(=O)OC)nnc1-c1ccc(Cl)cc1 2.82 µM [inhibitor, full curve, poor fit]
CCn1c(C)nc2cc(C(=O)OC(C(F)(F)C(F)F)C(F)(F)C(F)F)ccc21 44.7 µM [inhibitor, single point]
Cc1c(Cl)cccc1Nc1ccccc1C(=O)O 28.2 µM [inhibitor, partial curve]
C=CCOC(=O)C1=C[C@H](c2ccc(C(F)(F)F)cc2)[C@@H](CCCO)[C@H](OCC)O1 14.1 µM [inhibitor, partial curve]
O=C(NC12CC3CC(CC(C3)C1)C2)c1ccc([N+](=O)[O-])o1 35.5 µM [inhibitor, partial curve]
CC1CCCCC1NC(=O)COC(=O)COc1ccc(Cl)cc1 (stereo not given) 10 µM [inhibitor, full curve]
O=C(NC1CCCCCCC1)c1ccccc1O 17.8 µM [inhibitor, partial curve]
CCn1c(O)c(C=Nc2ccccc2)n(-c2ccccc2)c1=S 31.6 µM [inhibitor, partial curve]
CCCCCc1ccc(C2=NNC(=O)CC2)cc1 17.8 µM [inhibitor, partial curve]
Cc1cc(=O)oc2cc(OC(C)C(=O)Nc3ccc(N4CCCCC4)cc3)ccc12 (stereo not given) 10 µM [inhibitor, partial curve]
CN(Cc1ccco1)C(=O)Cn1nc(-c2ccc(Cl)cc2)ccc1=O 50.1 µM [inhibitor, single point]
Cc1ccc(OCc2cc(C(=O)NCCc3cccnc3)no2)cc1C 14.1 µM [inhibitor, partial curve]
Cc1nn(-c2ccccc2)c(N)c1N=Nc1ccc(Cl)cc1 50.1 µM [inhibitor, single point]
ONc1cccnc1-n1nc(C(F)(F)F)cc1C(F)(F)F 25.1 µM [inhibitor, partial curve]
Cc1ccc(NC(=O)C2COc3ccccc3O2)cc1C (stereo not given) 14.1 µM [inhibitor, partial curve]
CC1(C)Oc2ccc3ccc(=O)oc3c2/C(=C/Nc2cccc(O)c2)C1=O 35.5 µM [inhibitor, partial curve]
COC(=O)c1sccc1S(=O)(=O)N(CC(=O)Nc1cc(F)ccc1F)c1ccc(C)c(C)c1 14.1 µM [inhibitor, partial curve]
Cc1ccc(NC(=O)c2cn(CCC#N)nc2-c2cccs2)c([N+](=O)[O-])c1 25.1 µM [inhibitor, partial curve]
O=C(c1ccccc1-c1nc(-c2ccc(Cl)cc2)no1)N1CCCC1 28.2 µM [inhibitor, partial curve]
CCc1ccc(C(=O)/C=C/c2ccc([N+](=O)[O-])o2)cc1 39.8 µM [inhibitor, partial curve]
CCN(CC)c1nn2c(=O)c(C(=O)NCc3ccccc3Br)cnc2s1 25.1 µM [inhibitor, single point]
O=C1NC[C@@H](Cc2cccc3ccccc23)N(CCc2cc(C(F)(F)F)cc(C(F)(F)F)c2)C1=O 17.8 µM [inhibitor, single point]
COc1ccc(-c2cc(C(F)(F)F)nc(SCC(=O)N(C)Cc3ccccc3)n2)cc1 14.1 µM [inhibitor, partial curve]
CC1(C)COC(c2cc([N+](=O)[O-])ccc2Cl)=N1 56.2 µM [inhibitor, single point]
O=S(=O)(Nc1cccc(-c2ccc(N3CCOCC3)nn2)c1)c1ccc(F)c(C(F)(F)F)c1 35.5 µM [inhibitor, single point]
Cc1cc(C)n(-c2ccc(C(=O)OCc3ccccc3)cc2)n1 28.2 µM [inhibitor, partial curve, poor fit]
Cc1cc(C)n(CC(=O)c2ccc(Br)cc2)c(=O)c1C#N 28.2 µM [inhibitor, single point]
CC(C)(C)NC(=O)NC(=O)COC(=O)c1ccc(OC(F)(F)F)cc1 10 µM [inhibitor, partial curve]
COc1ccc(OCc2cc(C(=O)NCC3CCCCO3)no2)c(Cl)c1 (stereo not given) 17.8 µM [inhibitor, partial curve]
Cc1oc2ncn(CC(C)C)c(=O)c2c1C(=O)NCCCN(C)Cc1ccccc1 3.55 µM [inhibitor, single point]
CC(=O)c1ccc(OCc2cc(C(=O)NC(C)c3cnn(C)c3)no2)cc1 (stereo not given) 25.1 µM [inhibitor, single point]
CCc1nnc(NC(=O)C(C)Sc2ccccc2)s1 (stereo not given) 44.7 µM [inhibitor, partial curve]
CC(=O)Nc1ccc(OC/C=C(\C)Cl)cc1 35.5 µM [inhibitor, partial curve]
Cc1cccc(C(=O)NCCNc2nc3cc(C)c(C)cc3cc2C)c1 35.5 µM [inhibitor, partial curve]
CCC/C=N/Nc1nc2ccccc2s1 31.6 µM [inhibitor, single point]
CCN(CC)C(=O)C1CCN(Cc2ccc(OCc3ccccc3)cc2)CC1 31.6 µM [inhibitor, partial curve]
CCCCC1CCC(C(=O)Nc2ccc(S(=O)(=O)Nc3nccs3)cc2)CC1 (stereo not given) 35.5 µM [inhibitor, single point]
CC(C)n1c(=O)c2oc3ccccc3c2n(CC(=O)Nc2ccccc2Cl)c1=O 5.62 µM [inhibitor, full curve, poor fit]
CC1(C)C(=O)Nc2ccccc2N1C(=O)COc1ncnc2c(Cl)cc(Cl)cc12 28.2 µM [inhibitor, partial curve]
CCc1ccc(S(=O)(=O)c2cn(Cc3ccc(OC)cc3)c3cc(OC)c(OC)cc3c2=O)cc1 5.62 µM [inhibitor, full curve, poor fit]
O=C(Nc1ccc(C(=O)OC2CCCCC2)cc1)c1ccncc1 22.4 µM [inhibitor, partial curve]
COc1cccc(C2=NN(C(=O)c3cccs3)C(O)(C(F)(F)F)C2)c1 (stereo not given) 31.6 µM [inhibitor, partial curve]
COC(=O)c1ccccc1NC(=O)CCC(=O)N1CCSc2ccccc21 22.4 µM [inhibitor, single point]
C=C(C)CSc1nc2sc3c(c2c(=O)n1C1CCCCC1)CCN(C)C3 50.1 µM [inhibitor, single point]
O=C(COc1ccc(Br)cc1CNCCc1ccccc1)NCc1ccccc1 17.8 µM [inhibitor, partial curve]
C=CCNC(=S)N/N=C/c1ccc(-c2cccc([N+](=O)[O-])c2)o1 35.5 µM [inhibitor, partial curve]

Potency, inactive:
CCCCN(C)CCCNC(=O)c1cn(CC)c2ccc(S(=O)(=O)N3CCc4ccccc4C3)cc2c1=O

Potency, active:
Fc1cccc(Cl)c1CSc1nnc(COc2cccc3cccnc23)o1 17.8 µM

Activity change, negative = displacement, inactive:
Cc1ccc(-n2nc(C)c3c(C(F)(F)F)cc(-c4cccnc4)nc32)cc1C -5.54%
CC1CCN(c2nc3c(=O)[nH]c(N)nc3n2[C@@H]2O[C@H](CO)[C@@H](O)[C@H]2O)CC1 24.6%
COc1ccc(C(=O)c2cccc(C(=O)c3ccc(OC)c(C)c3)c2)cc1C 1.63%
COc1ccc(N2CCN(Cc3cc4c(cc3Br)OCCO4)CC2)cc1 4.42%
CC(N)(C(=O)O)c1cccc(CC(=O)O)c1 (stereo not given) -13.9%
N#CC1=C(N)C(C#N)(C#N)C(c2cccnc2)C2CC(c3ccccc3)CC=C12 (stereo not given) -8.98%
Cc1ccc(N(CC(=O)N2CCN(c3cccc(C)c3C)CC2)S(=O)(=O)c2c(C)nn(C)c2C)cc1 71.1%
Cc1ccc2c(CN3CCN(C(=O)c4ccco4)CC3)cc(=O)oc2c1C -11%
Cc1cc(Nc2ccccc2)c2c([N+](=O)[O-])cc(C)c(C)c2n1 -10.1%
Oc1ccccc1N1CCN(c2ccc3ccccc3n2)CC1 -5.79%
ON=C1c2cc(OCCN3CCCCC3)ccc2-c2ccc(OCCN3CCCCC3)cc21 -5.45%
COc1cc(NC(=O)c2ccc(Cl)cc2Cl)ccc1-c1cc2ccccc2oc1=O -2.93%
Cc1ccc(S(=O)(=O)NCCc2nnc3ccc(SCc4cccnc4)nn23)cc1 -11.4%
COc1cccc(C2CC(c3ccc(Br)cc3)=NN2C(=O)c2ccncc2)c1OC (stereo not given) -17.9%
CCn1c(C)c(C)c2cc(C(=O)NCCc3cc(OC)ccc3OC)ccc21 -2.71%
CSc1nnc(CSCc2ccc(Cl)cc2Cl)n1-c1ccccc1 -0.397%
N#Cc1cc2c([nH]c1=O)CCCC2 4.32%
NS(=O)(=O)c1ccc(CNC(=O)CNC(=O)c2ccc(F)cc2)cc1 4.07%
Oc1ccc2ccccc2c1/C=N/Nc1ccccc1 -13.7%
COc1ccc(Oc2cnc3ccccc3n2)cc1 -9.87%
COc1ccccc1CNC(=O)COc1ccccc1C -17.7%
